Test results from PubChem BioAssay AID488969 (Vanderbilt High Throughput Screening Facility, 2010).
Whole data set: some 110,000 compounds, median “z-score” near -0.1, cut for the highest 2% near 2. The list shows a part of the results.

Molecular target: Metabotropic glutamate receptor 8 (Rattus norvegicus) (UniProt P70579)
Experiment: mGluR8 Gi/Go-coupled signaling modulation – cell-based, rat, thallium flux, HTS, primary screen (AID 488969)
Conditions: HEK293 rat mGluR8, GIRK (G protein-gated inwardly rectifying potassium channel) thallium flux, FluoZin2; at 10 µM; stronger effect = higher value; submaximal glutamate (EC20) added with thallium

UniProt P70579, sequence (P70579 whole entry, looked up): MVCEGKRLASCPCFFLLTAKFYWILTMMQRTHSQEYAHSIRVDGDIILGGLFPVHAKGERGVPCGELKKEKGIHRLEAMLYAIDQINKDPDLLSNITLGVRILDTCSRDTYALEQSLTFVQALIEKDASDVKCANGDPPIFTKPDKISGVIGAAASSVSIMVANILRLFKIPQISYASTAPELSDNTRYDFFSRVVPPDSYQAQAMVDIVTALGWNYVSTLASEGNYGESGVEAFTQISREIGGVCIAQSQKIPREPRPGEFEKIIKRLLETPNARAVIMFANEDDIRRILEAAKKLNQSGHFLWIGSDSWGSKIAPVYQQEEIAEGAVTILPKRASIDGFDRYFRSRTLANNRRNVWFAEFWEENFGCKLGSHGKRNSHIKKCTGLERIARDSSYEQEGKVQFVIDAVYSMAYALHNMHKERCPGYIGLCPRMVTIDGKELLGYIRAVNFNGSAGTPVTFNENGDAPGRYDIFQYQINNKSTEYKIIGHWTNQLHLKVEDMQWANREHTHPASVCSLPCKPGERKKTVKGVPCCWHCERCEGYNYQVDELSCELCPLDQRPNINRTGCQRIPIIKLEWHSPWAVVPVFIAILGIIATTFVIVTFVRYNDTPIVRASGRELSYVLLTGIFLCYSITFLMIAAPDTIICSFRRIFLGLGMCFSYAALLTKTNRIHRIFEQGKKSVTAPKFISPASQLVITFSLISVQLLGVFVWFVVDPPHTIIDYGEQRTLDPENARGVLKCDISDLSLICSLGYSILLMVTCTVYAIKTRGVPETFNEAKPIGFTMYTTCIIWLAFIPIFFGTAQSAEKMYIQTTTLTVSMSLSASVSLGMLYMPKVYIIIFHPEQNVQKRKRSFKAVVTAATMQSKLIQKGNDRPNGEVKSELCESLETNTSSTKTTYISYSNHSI

Question: Which z-score does the source give for `CN(C)C(=O)CSc1nnc(-c2cccnc2)n1-c1ccccc1` here?
Answer: -0.185

Question: `CCN1CCN(Cc2ccccc2NC(=O)Nc2ccc(C)cc2)CC1` was tested. Which z-score did it give?
Answer: 0.088

Question: For `O=C(NCC1COCCO1)C1CCN(S(=O)(=O)c2ccccc2)CC1` (stereo unspecified), which z-score is on record?
Answer: -0.979

Question: How did the z-score turn out when `O=C1C/C(=C/NCc2ccccc2)C(=O)N1` was run?
Answer: -0.148

Question: With `Cc1cccc(NC(=O)CCC(=O)N/N=C/c2ccco2)c1` as the molecule, how does the z-score read?
Answer: 0.372

Question: For `COc1ccccc1C(=O)C1Nc2ccccc2-c2nnc(SC)nc2O1` (stereo unspecified), which z-score is on record?
Answer: -1.1

Question: With `CCCOc1cccc(C(=O)N(Cc2ccco2)C2CCS(=O)(=O)C2)c1` (stereo unspecified) as the molecule, how does the z-score read?
Answer: 0.188

Question: Which z-score does the source give for `COc1ccc(Oc2ccc(N/C=C3/CCCC3=O)cc2)cc1` here?
Answer: -0.315

Question: For `CCSC1=N/C(=C\c2cccnc2)C(=O)N1c1ccccc1`, which z-score is on record?
Answer: 0.105

Question: Which z-score does the source give for `O=C(/C=C/c1cccc([N+](=O)[O-])c1)NC1CC2CCC1C2` (stereo unspecified) here?
Answer: -0.175

Question: `Cc1sc2nc(CN3CCCC3)nc(Cl)c2c1C` was tested. Which z-score did it give?
Answer: -0.0264

Question: Which z-score does the source give for `O=C(NCc1ccc2c(c1)OCO2)c1cccc(S(=O)(=O)N2CCCCC2)c1` here?
Answer: -1.37

Question: How did the z-score turn out when `O=C(Nc1nccc(-c2cccs2)n1)c1cccs1` was run?
Answer: -0.00264

Question: `COc1ccc(-c2nc3c(n2O)CCCC3=O)cc1OC` was tested. Which z-score did it give?
Answer: -2.03

Question: Which z-score does the source give for `Cc1cc(NC(=O)C2CC(=O)OC2c2ccccc2)no1` (stereo unspecified) here?
Answer: -0.759

Question: `Cc1ccc2[nH]c(=O)c(CN(CCCN(C)C)C(=O)Nc3cccc(Cl)c3)cc2c1` was tested. Which z-score did it give?
Answer: 0.323

Question: Which z-score does the source give for `Cc1ccc(N2C(=O)C(Cl)=C(N3CCOCC3)C2=O)cc1Cl` here?
Answer: -0.0801

Question: How did the z-score turn out when `Cc1ccccc1CSCCNC(=O)COc1ccc(Cl)cc1` was run?
Answer: 0.0526

Question: With `O=C(CN(C(=O)Cn1nnc(-c2cccs2)n1)c1ccc2c(c1)OCCO2)NCc1ccccc1` as the molecule, how does the z-score read?
Answer: -0.285

Question: How did the z-score turn out when `CC(C)NC(=O)COc1ccc(Cl)cc1Cl` was run?
Answer: 0.189

Question: For `Cc1cc(C)n2nc(S(=O)(=O)NC3CCCCC3)nc2n1`, which z-score is on record?
Answer: -0.0512

Question: How did the z-score turn out when `CSc1ccccc1NC(=O)CN(Cc1ccccc1)S(C)(=O)=O` was run?
Answer: 0.0694

Question: `CC(C)CC(=O)NC(=S)Nc1cc(C(F)(F)F)ccc1N1CCOCC1` was tested. Which z-score did it give?
Answer: -0.0669

Question: Which z-score does the source give for `CCOC(=O)c1ccccc1NC(=O)C(C)Oc1ccccc1` (stereo unspecified) here?
Answer: -0.886

Question: `COc1ccccc1Nc1nc(N)nc(CN(C)C2CCCCC2)n1` was tested. Which z-score did it give?
Answer: -0.0931

Question: How did the z-score turn out when `CCc1nnc(NC(=O)C=C(C)C)s1` was run?
Answer: 0.0557

Question: `CCSc1nc2ccc(N3C(=O)C4C5C=CC(C5)C4C3=O)cc2s1` (stereo unspecified) was tested. Which z-score did it give?
Answer: -0.716

Question: How did the z-score turn out when `O=C(CCC1COc2ccccc2O1)NC1CCCCC1` (stereo unspecified) was run?
Answer: -0.137

Question: How did the z-score turn out when `CCOc1ccc(-n2ccnc2SCC(=O)Nc2nnc(CC)s2)cc1` was run?
Answer: 0.544

Question: How did the z-score turn out when `CCc1nc(C)cn1S(=O)(=O)c1ccc(Cl)c(Cl)c1Cl` was run?
Answer: -0.112

Question: How did the z-score turn out when `O=c1ccc2cc3c([nH]c4ccc(Br)cc43)oc-2c1O` was run?
Answer: 0.498

Question: For `Fc1ccc(-c2ccnc3nc(-n4cccc4)nn23)cc1`, which z-score is on record?
Answer: -0.783

Question: `Cc1ccc2c(Cl)c(C(=O)NCC3CCCO3)sc2c1` (stereo unspecified) was tested. Which z-score did it give?
Answer: -0.23

Question: For `COc1cc(C2C(C#N)=C(N)Oc3c2ccc2ccccc32)ccc1OCC(=O)Nc1cccc(C)c1` (stereo unspecified), which z-score is on record?
Answer: -0.227

Question: `CCCCNC(=S)Nc1cc([N+](=O)[O-])ccc1C` was tested. Which z-score did it give?
Answer: 0.706

Question: For `O=C(NCCc1csc(-c2ccc(C(F)(F)F)cc2)n1)c1cccs1`, which z-score is on record?
Answer: -0.803

Question: How did the z-score turn out when `N#CC1=C(S)N(c2ccc(F)cc2)C(c2cccs2)NC1=O` (stereo unspecified) was run?
Answer: -0.67

Question: `COc1ccc(-n2cnc3c(sc4nccc(N(C)C)c43)c2=O)cc1` was tested. Which z-score did it give?
Answer: -0.816

Question: How did the z-score turn out when `O=C1N=C2SCCN2/C1=C\c1ccc(Cl)cc1` was run?
Answer: -0.672

Question: For `O=C(NC(=S)Nc1nc2c(s1)CSc1ccccc1-2)c1ccccc1`, which z-score is on record?
Answer: 0.384

Question: `CCCCOC(=O)CN1C(=O)c2ccc(C(=O)OCCCC)cc2C1=O` was tested. Which z-score did it give?
Answer: -0.415

Question: How did the z-score turn out when `CC(=O)Nc1nc(C)nc(-c2ccccc2OC(C)=O)n1` was run?
Answer: -0.381

Question: `CCCC(=O)NCc1nc2ccccc2n1C` was tested. Which z-score did it give?
Answer: -0.196

Question: With `Cc1cc(=O)[nH]c(SCC(=O)C23CC4CC(CC(C4)C2)C3)c1C#N` as the molecule, how does the z-score read?
Answer: -0.0485

Question: With `COc1ccccc1CNC(=O)c1c(N)n(CCCN2CCOCC2)c2nc3ccccc3nc12` as the molecule, how does the z-score read?
Answer: 1.66

Question: With `COc1ccccc1C(=O)Nc1ccc(OCc2nnc3c4ccccc4c(C)nn23)cc1` as the molecule, how does the z-score read?
Answer: -0.0364

Question: How did the z-score turn out when `COc1ccc(C2NC(=S)NC(C)=C2C(=O)c2ccccc2)cc1OC` (stereo unspecified) was run?
Answer: -0.00465

Question: Which z-score does the source give for `COc1ccc(C(C(=O)Nc2ccc(F)cc2)N(C(=O)Cn2nnc3ccccc32)C2CC2)cc1` (stereo unspecified) here?
Answer: -0.197

Question: How did the z-score turn out when `CC(C)Oc1ccc(C2CC(=O)N(c3cccc(C(=O)O)c3)C2=O)cc1` (stereo unspecified) was run?
Answer: 0.682

Question: `Fc1ccccc1OCCCCCCN1CCCC1` was tested. Which z-score did it give?
Answer: -0.000634

Question: For `Cc1cccc(-n2c(Cc3cc(=O)[nH]c(=O)[nH]3)nnc2SCC(=O)NCc2ccco2)c1`, which z-score is on record?
Answer: -0.581

Question: Which z-score does the source give for `COc1ccc(/C=C(/C#N)C(=O)Nc2ccc(C)cc2C)cc1C(=O)O` here?
Answer: 0.129

Question: How did the z-score turn out when `CCOc1ccc(NC(=O)CSc2nnc(C34CC5CC(CC(C5)C3)C4)n2C)cc1` was run?
Answer: -0.136

Question: For `COc1ccc(-c2csc(NC(=O)c3cccc(S(=O)(=O)N4CCN(C)CC4)c3)n2)cc1`, which z-score is on record?
Answer: 0.203

Question: `Cn1c(=O)cc(SCC(=O)NCCC2=CCCCC2)c2ccc(Cl)cc21` was tested. Which z-score did it give?
Answer: -0.0516

Question: How did the z-score turn out when `CCOC(=O)CSC1=NC(=O)CS1` was run?
Answer: 0.159
